These results are taken from article PMC12040169 (PLOS Biology, 2025).

The list shows a part of the results.

This assay deals with T1, C. trachomatis L2/434/Bu expressing GFP (CTL2-GFP).
T1 construct: L2/434/Bu GFP intracellular growth in HeLa cells
Set-up: species or system HeLa; C. trachomatis total inclusion area by high-content imaging, normalised to DMSO. Conditions: total inclusion area; 28.5 h, 10 µM; inhibitor. In short, it runs like this:
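Imaging read-out: GFP inclusions and Hoechst nuclei captured by high-content imaging after fixation. Inclusion area/number = chlamydial growth; nuclei count = host cell viability. MIC calculated per earlier method.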
In the case of `O=C(Cn1c([C@@H]2CCCO2)cc2cccnc21)N1CCCCC1` [CBK282286], the “% of control remaining” value is 65.8172. For `CC(C)OC(=O)N1CCN(C(=O)c2cn(Cc3cccc(S(C)(=O)=O)c3)nn2)CC1` [CBK160994T], the “% of control remaining” value is 100.236.

With `CCOC(=O)CCNC(=O)c1cncc(-c2ccc(C(=O)N3CCOCC3)cc2)c1` [CBK158645], the “% of control remaining” value was 102.782. `CN(C)c1ccc(Nc2ncnc3c2cnn3CCC#N)cn1` [CBK306231]: the “% of control remaining” value amounted to 16.2849. As to `CC(C)C(=O)N1CC2(CCN(CCc3cccc4ccccc34)CC2)c2ccccc21` [CBK136978], the “% of control remaining” value is reported as 52.9462. For `Cc1cc(C)n(CC(=O)NC(Cc2cccs2)c2nccs2)n1` (centres unmarked) [CBK284686], the “% of control remaining” value was 97.9963. In the case of `COc1ccc(F)c(CN2CC3CCCN3C[C@@H]2C)c1` (some centres unmarked) [CBK284549], the “% of control remaining” value amounted to 103.315. For `Cc1nc2c(C)cccc2cc1C(=O)NCCCc1ccccn1` [CBK282148], the “% of control remaining” value turned out to be 88.6972. `O=C(COc1ccccc1)N/N=C/c1ccc[nH]1` [CBK261281]: the “% of control remaining” value worked out at 111.723. As to `CS(=O)(=O)N1CCC(c2nc(-c3ccc(C(F)(F)F)cc3)c3ccccn23)CC1` [CBK036006], the “% of control remaining” value was found to be 104.693.

For the molecule `O=C(N/N=C/c1c(Cl)cccc1Cl)c1cc(Br)ccc1O` [CBK262022], the “% of control remaining” value is listed as 104.018. The result for `Cc1csc(NC(=O)C2CC(=O)N(C3CCCC3)C2)n1` (centres unmarked) [CBK175501] reads 93.2468. For the molecule `OC1CCN(Cc2ccc(-c3ccc(F)cc3F)o2)CC1` [CBK283200], the “% of control remaining” value was 68.2321.

With `Cc1nc(C(=O)N2CCn3nc(C(O)Cc4ccccc4)cc3C2)cs1` (centres unmarked) [CBK307214], the “% of control remaining” value worked out at 77.2178. The figure for `CC(=O)C1=C(O)C(=O)N(CCN2CCOCC2)C1c1cccc([N+](=O)[O-])c1` (centres unmarked) [CBK264568] is 112.837; for `COc1ccc(-c2nccnc2N[C@@H](CO)C(C)C)cc1` [CBK089040] it is 69.1784.

In the case of `CC1CCN(CC(=O)NC2CCN(C(C)c3ccccc3)CC2)CC1` (centres unmarked) [CBK284017], the “% of control remaining” value is reported as 94.0078. For `CS(=O)(=O)N1CC2(CCN(C(=O)[C@@H]3CNC[C@H]3c3ccccc3)CC2)c2ccccc21` [CBK022572], the “% of control remaining” value worked out at 68.1187. `Cc1nc2cccnc2n1CCNC(=O)Cc1cccs1` [CBK283592]: the “% of control remaining” value turned out to be 101.344. As to `Cc1ccc(N(CC(=O)N/N=C/c2ccc(Cl)cc2)S(=O)(=O)c2ccccc2)cc1` [CBK262182], the “% of control remaining” value turned out to be 87.7629.

Consider `CSc1nnc(CC2CCN(C(=O)c3cc(C)c(C)cc3C)CC2)n1C` [CBK307467], for which the “% of control remaining” value is 56.3464. For the molecule `Cc1ncccc1COC(=O)N1Cc2ccccc2C1` [CBK200138], the “% of control remaining” value was found to be 91.1685. The result for `Cc1ccc2cc(C)c3nn(CC(=O)NC4CC4)c(=O)n3c2c1C` [CBK283822] reads 80.4632; that for `O=C1CC(c2ccc(F)cc2)Cc2[nH]c(=O)c(C(=O)O)cc21` (centres unmarked) [CBK287200], 116.315; that for `Cc1ccccc1N1C(=O)c2ccc(C(=O)OCC(=O)c3ccc(Cl)c([N+](=O)[O-])c3)cc2C1=O` [CBK264108], 117.447.

On to `COc1ccc(CCN(Cc2ccc(Cl)c(Cl)c2)C(=O)NCc2ccc(C#N)cc2)cc1OC` [CBK158771], for which the “% of control remaining” value is 105.179.

For `CC(C)c1nc(C(=O)NCC2CCCN(c3ncccn3)C2)cs1` (centres unmarked) [CBK304351], the “% of control remaining” value stood at 77.2563. In the case of `CC(C)Cn1ncc2cc(C(=O)Nc3ccnn3C(C)C)cnc21` [CBK304938], the “% of control remaining” value is on record as 35.3005. For the molecule `Cc1ccc(NC(=S)N2CCN(C/C=C/c3ccccc3)CC2)cc1` [CBK264574], the “% of control remaining” value was 104.358. Turning to `CCN1CCN(c2nc(N)c3ccccc3n2)CC1` [CBK268561C], the “% of control remaining” value was determined as 86.62. The result for `COc1cc(NC(=O)CN2C(=O)c3ccc([N+](=O)[O-])cc3C2=O)c(C(=O)O)cc1OC` [CBK265109] reads 88.0054; that for `COc1ccccc1N1CCN(CCCCNS(=O)(=O)c2ccc(Cl)c(Cl)c2)CC1` [CBK074837], 78.183; that for `CCN(CC)CCN1C(=O)CCC2(c3ccccc3)CCC(=O)C=C12` (centres unmarked) [CBK023010C], 87.3121. As for `O=C(Cc1ccsc1)Nc1snnc1-c1ccc(Cl)cc1` [CBK153243], the “% of control remaining” value stood at 97.9808. The result for `C#CCNC(=O)CC[C@H]1CNC(=O)[C@@H]2[C@@H](CCN2Cc2cccs2)N1C` [CBK289033] reads 115.211; that for `CN1CCC(N2CCN(C(=O)NCCN3CCOCC3)CC2)CC1` [CBK155891], 98.2665; that for `CC(C)(C)c1ccc(C(=O)N2CC(C(=O)O)C2)cc1` [CBK008670], 41.5689. Regarding `COc1ccc2sc(Nc3ccc(F)cc3)nc2c1` [CBK287641], the “% of control remaining” value was 103.167. Consider `CCc1oc2ccc(Cl)cc2c1C(=O)CCN1CCCCC1` [CBK009675C], for which the “% of control remaining” value was 100.55. As for `CC(C)CC(=O)N1CCCC(n2c(=O)oc3ccc(Cl)cc32)C1` (centres unmarked) [CBK282891], the “% of control remaining” value is reported as 82.594. On to `CNc1nc(N)nc(OCC(F)(F)F)n1` [CBK028082], for which the “% of control remaining” value was found to be 57.7188. The result for `O=C(CSc1nnc(-c2ccco2)o1)c1ccc2c(c1)OCCO2` [CBK266387] reads 65.3767; that for `CN1CCN(CC(=O)Nc2sc3c(c2C(=O)Nc2ccccc2)CCCC3)CC1` [CBK268431], 92.034.

Consider `Cn1ccnc1C1(O)CC2CCC(C1)N2C(=O)c1cccs1` (centres unmarked) [CBK284088], for which the “% of control remaining” value was 105.754. For `CCc1nnc(NS(=O)(=O)c2ccc(Nc3ccc([N+](=O)[O-])c4nonc34)cc2)s1` [CBK261442], the “% of control remaining” value is given as 86.5948. Turning to `Cc1c(Cc2ccccc2)c(N2CCN(Cc3ccccc3)CC2)n2c(nc3ccccc32)c1C#N` [CBK263150], the “% of control remaining” value is given as 107.579.

With `COC(C(=O)N(C)C)C(OC)C(=O)N(C)C` (centres unmarked) [CBK005447], the “% of control remaining” value was 79.4843. `O=C(c1nccs1)C1CCN(C(=O)Cc2ccc(F)cc2)CC1` [CBK284199]: the “% of control remaining” value came to 97.2824. In the case of `Cc1nn(C(C)C)c(C)c1CN(CCO)Cc1cccs1` [CBK283016], the “% of control remaining” value came to 113.096.

Regarding `COc1ccc(C)cc1S(=O)(=O)n1ccc2c(CNC3CCN(C(C)C)CC3)cccc21` [CBK113310T], the “% of control remaining” value is listed as 34.5383.

As to `N#Cc1ccc(S(=O)(=O)NC2CCCCNC2=O)cc1` (centres unmarked) [CBK009293], the “% of control remaining” value is reported as 71.8944. Regarding `O=C(CSc1ccc(Cl)cc1)OCC(=O)c1ccccc1` [CBK264306], the “% of control remaining” value is 97.729. Regarding `Cc1ccc2[nH]c(SC(C)C(=O)N3CCOCC3)nc2c1` (centres unmarked) [CBK306187], the “% of control remaining” value came to 59.2269. Take `Cc1cnn(CCC(=O)NC(Cc2ccsc2)c2nccs2)c1` (centres unmarked) [CBK284664]: the “% of control remaining” value came to 129.454. As for `COCCCN(Cc1ccccn1)Cc1ccc(F)cc1F` [CBK282974], the “% of control remaining” value is on record as 106.686.

`CC1(C)Cc2nc3[nH]nc(N)c3cc2CO1` [CBK261476]: the “% of control remaining” value was found to be 92.5887. As to `Fc1ccc(CCN2CCCCC2c2cc3ccccc3[nH]2)cc1` (centres unmarked) [CBK107227T], the “% of control remaining” value was 38.6838. With `COc1ncc(-c2cncc(NCc3cccc(Cl)c3)n2)c(OC)n1` [CBK065211], the “% of control remaining” value is listed as 152.911. As for `CCN(CC)S(=O)(=O)c1ccc2c(c1)CCCN2C(=O)c1ccc(C#N)cc1` [CBK295161], the “% of control remaining” value was 107.802. Turning to `O=C(NCC1CCCO1)C1(Cc2ccc(-c3ccc(F)c(F)c3)cc2)CCOCC1` (centres unmarked) [CBK285534], the “% of control remaining” value is 107.475. Regarding `O=c1ccnc(SCc2cccc(Cl)c2)[nH]1` [CBK288123], the “% of control remaining” value is 0.06112. As for `COc1ccc(CCC(=O)N2CCCCC2c2ncc(-c3cccc(F)c3)[nH]2)cc1OC` (centres unmarked) [CBK291148], the “% of control remaining” value stood at 101.614.

Regarding `Cc1ccc(-c2cn(S(=O)(=O)c3cccc4nsnc34)nc2N)cc1` [CBK268871], the “% of control remaining” value was found to be 85.542. `Cn1cc(-c2nc(C(=O)N3CCN(c4ncccn4)CC3)cs2)cn1` [CBK305626]: the “% of control remaining” value was determined as 59.545.

`CCOC(=O)C(C)n1nc(C)n2c(cc3sc(C)cc32)c1=O` (centres unmarked) [CBK284066]: the “% of control remaining” value is on record as 92.9552. For the molecule `O=C(NCc1cccs1)N1CCCN(Cc2ccc(F)cc2)CC1` [CBK306294], the “% of control remaining” value is 59.6128. The figure for `CN(C)S(=O)(=O)N(CC(=O)N1CCN(Cc2ccccc2)CC1)c1ccccc1` [CBK268423] is 92.1853; for `COCCn1cc(C(=O)N2CCOC3CCCC32)c2ccccc21` (centres unmarked) [CBK305156] it is 49.6795. For the molecule `Cc1ccc(Cn2cnc3c(nnn3-c3ccc(C)cc3)c2=O)cc1` [CBK287502], the “% of control remaining” value turned out to be 104.96.

With `O=C(O)c1ccc(S(=O)(=O)Nc2ccc(OC3CCCC3)cc2)cc1` [CBK296658], the “% of control remaining” value is 85.2596.

Turning to `CN(C)S(=O)(=O)Nc1ccc(Cc2ccncc2)cc1` [CBK265011], the “% of control remaining” value came to 115.817.

In the case of `Cn1c(=O)n(C)c2cc(NC(=O)CSc3nc(Nc4ccccc4)nc(N4CCOCC4)n3)ccc21` [CBK269041], the “% of control remaining” value is reported as 69.5362. Consider `COc1cc(NC(=O)N(C)C2CCN(C)C2)cc(OC)c1OC` (centres unmarked) [CBK156022], for which the “% of control remaining” value is 107.149. As to `O=C1NC/C=C/CC2(CCN(c3ncccn3)CC2)C(=O)NCCOc2ccccc21` [CBK292081], the “% of control remaining” value is reported as 90.6267. In the case of `O=C1c2ccccc2C(Nc2cccnc2)N1c1ccccn1` (centres unmarked) [CBK113239], the “% of control remaining” value worked out at 85.8867. Regarding `Cc1nc2c(c(=O)[nH]1)CCN(CCC(C)c1ccccc1)C2` (centres unmarked) [CBK282387], the “% of control remaining” value is 119.396.

For the molecule `O=C(COc1ccc(S(=O)(=O)N2CCCCC2)cc1)N1CCC(Cc2ccccc2)CC1` [CBK268547], the “% of control remaining” value is reported as 115.46.

As for `Cc1cc2c(cc1Cl)C(=O)CC1(CCN(C(=O)C3CC(=O)OC3(C)C)CC1)O2` (centres unmarked) [CBK156514], the “% of control remaining” value amounted to 76.0351. On to `FC(F)(F)c1nc2ccccc2nc1OCCc1c[nH]c2ccccc12` [CBK115843], for which the “% of control remaining” value was 70.0826. The result for `COCCN1CCn2c(nc3cc(NC(=O)C4CCCCC4)ccc32)C1` [CBK307411] reads 66.5093.
